Legend:
[1] = target: T1, CD24 on the surface of human liver cancer cells (Huh-7, BEL-7402, shCD24 Huh-7) (human) (UniProt P25063); assay: flow cytometry on Huh-7 cells, 250 nmol/L antibody, FITC anti-human IgG(H+L)
T1 sequence (looked up): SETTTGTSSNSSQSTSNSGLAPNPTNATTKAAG

[2] = target: T1, CD24 on the surface of human liver cancer cells (Huh-7, BEL-7402, shCD24 Huh-7) (human); assay: flow cytometry on BEL-7402 cells, 250 nmol/L antibody, FITC anti-human IgG(H+L)
[3] = target: T1, CD24 on the surface of human liver cancer cells (Huh-7, BEL-7402, shCD24 Huh-7) (human); assay: flow cytometry on CD24 knock-down Huh-7 (shCD24 Huh-7) cells, 250 nmol/L antibody, FITC anti-human IgG(H+L)

B1: 靶向CD24的双特异性融合抗体cG7-sTGFBR2 (anti-CD24 humanized chimeric antibody cG7 fused at the heavy chain C-terminus via Gly4Ser to the human TGFBR2 extracellular domain … (bispecific antibody, human IgG1, kappa)
heavy: QVKLEESGGGLVQPGGSLKISCAASGFDFSRYWMSWVRQAPGKGLEWIGEINPDSSTINYTPSLRDKFIISRDNAKNTLYLQMSKVRYEDTSLYYCARQGDYWGQGTSVTVSSASASTKGPSVFPLAPSSKSTSGGTAALGCLVKDYFPEPVTVSWNSGALTSGVHTFPAVLQSSGLYSLSSVVTVPSSSLGTQTYICNVNHKPSNTKVDKRV[human IgG1 Fc cut from this listing]GGGGSGSTIPPHVQKSVNNDMIVTDNNGAVKFPQLCKFCDVRFSTCDNQKSCMSNCSITSICEKPQEVCVAVWRKNDENITLETVCHDPKLPYHDFILEDAASPKCIMKEKKKPGETFFMCSCSSDECNDNIIFSEEYNTSNPD
light: DIVMTQTPLSLSVTIGQPASISCKSSQSLLHSDGKTYLNWLLQRPGQSPKRLIYLVSKLDSGVPDRFTGSGSGTDFTLKVSRVEAEDLGVYYCWQGAHFPYTFGGGTKLEIKVDTVAAPSVFIFPPSDEQLKSGTASVVCLLNNFYPREAKVQWKVDNALQSGNSQESVTEQDSKDSTYSLSSTLTLSKADYEKHKVYACEVTHQGLSSPVTKSFNRGEC
结合率 (percent of cells bound) [1]: 86.9% | 结合率 (percent of cells bound) [2]: 44% | 结合率 (percent of cells bound) [3]: 28.6%
